PMC11995724, “Antibiotic target discovery by integrated phenotypic and activity-based profiling of electrophilic fragments” (Cell chemical biology, 2025)
Screen size: about 3,200 compounds; about 75 (2%) showed an effect of 50% or more. Some of the results follow.

The molecules below were run on T1, S. aureus MSSA476. Details: relative growth, OD600, TSB; 25 µM; inhibitor.
T1 construct: MSSA476
Set-up: species or system S. aureus MSSA476 (TSB) or V. cholerae SAD30 (LB); 384-well bacterial growth screen at 25 uM, OD600 relative to DMSO control

| SMILES | % of control remaining [%] |
| --- | --- |
| CNC(=O)C(C#N)=Cc1cc(C)n(-c2cccc3ccccc23)c1C [9-P16, 2-cyano-3-[2,5-dimethyl-1-(naphthalen-1-yl)-1H-pyrrol-3-yl]-N-methylprop-2-enamide] | 106.667 |
| C=CC(=O)NCc1cn(C2CCCC2)nc1C [3-N21, N-[(1-cyclopentyl-3-methyl-1H-pyrazol-4-yl)methyl]prop-2-enamide] | 99.9565 |
| COCCn1c(C)cc(C(=O)CCl)c1C [10-D13, 2-chloro-1-[1-(2-methoxyethyl)-2,5-dimethyl-1H-pyrrol-3-yl]ethan-1-one] | 103.125 |
| COc1ccc(-c2n[nH]cc2C=C(C#N)C(=O)Nc2ccccc2)cc1 [8-A14, 2-cyano-3-[3-(4-methoxyphenyl)-1H-pyrazol-4-yl]-N-phenylprop-2-enamide] | 86.971 |
| CC(Cl)C(=O)N1CC(=O)Nc2ccccc21 (stereo not shown) [6-E07, 4-(2-chloropropanoyl)-1,2,3,4-tetrahydroquinoxalin-2-one] | 82.2927 |
| C=CC(=O)NCCC(=O)N1CC[S+]([O-])C(C)(C)CC1 (stereo not shown) [3-O17, N-[3-(7,7-dimethyl-1-oxo-1lambda4,4-thiazepan-4-yl)-3-oxopropyl]prop-2-enamide] | 100.305 |
| Cc1ccc(C=C(C#N)C(=O)NC2CC2)s1 [9-K15, 2-cyano-N-cyclopropyl-3-(5-methylthiophen-2-yl)prop-2-enamide] | 64.4195 |
| COCC(NC(=O)C(C)Cl)c1ccccn1 (stereo not shown) [6-B13, 2-chloro-N-[2-methoxy-1-(pyridin-2-yl)ethyl]propanamide] | 95.6098 |
| N#CC(=Cc1ccco1)C(=O)NCCc1ccc(F)cc1F [9-B11, 2-cyano-N-[2-(2,4-difluorophenyl)ethyl]-3-(furan-2-yl)prop-2-enamide] | 93.1835 |
| O=C(CCl)NCCc1cccc2ccccc12 [6-E14, 2-chloro-N-[2-(naphthalen-1-yl)ethyl]acetamide] | 93.561 |
| CC(Cl)C(=O)Nc1ccc(Cl)c(C(F)(F)F)c1 (stereo not shown) [4-C12, 2-chloro-N-[4-chloro-3-(trifluoromethyl)phenyl]propanamide] | 121.582 |
| C=CC(=O)N1CCC(n2cc(CO)nn2)C1 (stereo not shown) [2-E08, 1-{3-[4-(hydroxymethyl)-1H-1,2,3-triazol-1-yl]pyrrolidin-1-yl}prop-2-en-1-one] | 118.712 |
| C=CC(=O)N(C)CC(=O)NCc1nc2cc(C)ccc2n1C [2-B14, N-({[(1,5-dimethyl-1H-1,3-benzodiazol-2-yl)methyl]carbamoyl}methyl)-N-methylprop-2-enamide] | 148.303 |
| N#CC(=Cc1ccccc1)C(=O)NCc1ccc(F)cc1 [8-P10, 2-cyano-N-[(4-fluorophenyl)methyl]-3-phenylprop-2-enamide] | 106.556 |
| C=CC(=O)N1CCC(n2cnc3ccccc3c2=O)C1 (stereo not shown) [3-C03, 3-[1-(prop-2-enoyl)pyrrolidin-3-yl]-3,4-dihydroquinazolin-4-one] | 102.046 |
| CC(NC(=O)C(C#N)=Cc1ccco1)c1cccc(-n2cccn2)c1 (stereo not shown) [9-J04, 2-cyano-3-(furan-2-yl)-N-{1-[3-(1H-pyrazol-1-yl)phenyl]ethyl}prop-2-enamide] | 97.9775 |
| N#CC(=Cc1c(F)cccc1F)C(=O)Nc1ccccc1Cl [9-I20, N-(2-chlorophenyl)-2-cyano-3-(2,6-difluorophenyl)prop-2-enamide] | 89.8876 |
| CC(Cl)C(=O)N1CCC(n2nnc3c2CCCC3)CC1 (stereo not shown) [7-H17, 2-chloro-1-[4-(4,5,6,7-tetrahydro-1H-1,2,3-benzotriazol-1-yl)piperidin-1-yl]propan-1-one] | 102.669 |
| C=CC(=O)N1CCOC(c2nc(C)cs2)C1 (stereo not shown) [3-A17, 1-[2-(4-methyl-1,3-thiazol-2-yl)morpholin-4-yl]prop-2-en-1-one] | 115.629 |
| CC(Cl)C(=O)NC1CCCc2ccccc21 (stereo not shown) [5-M19, 2-chloro-N-(1,2,3,4-tetrahydronaphthalen-1-yl)propanamide] | 94.3534 |
| CC1CC(C(=O)CCl)CO1 (stereo not shown) [10-M13, 2-chloro-1-(5-methyloxolan-3-yl)ethan-1-one] | 147.5 |
| N#CC(=Cc1ccccc1)C(=O)Nc1ccc(N2CCCCC2)cc1 [8-E15, 2-cyano-3-phenyl-N-[4-(piperidin-1-yl)phenyl]prop-2-enamide] | 111.203 |
| O=C(CCl)NCCC1=CCCCC1 [4-H05, 2-chloro-N-[2-(cyclohex-1-en-1-yl)ethyl]acetamide] | 101.382 |

| SMILES | % of control remaining [%] |
| --- | --- |
| C=CC(=O)N(Cc1c(C)cc(Cl)cc1C)CC1COCCO1 (stereo not shown) [1-J09, N-[(4-chloro-2,6-dimethylphenyl)methyl]-N-[(1,4-dioxan-2-yl)methyl]prop-2-enamide] | 116.747 |
| Cc1c(NC(=O)CCl)cccc1[N+](=O)[O-] [4-E07, 2-chloro-N-(2-methyl-3-nitrophenyl)acetamide] | 81.5626 |
| O=C(CCl)NC(c1ccccc1)C1CCCCC1 (stereo not shown) [6-E12, 2-chloro-N-[cyclohexyl(phenyl)methyl]acetamide] | 99.7073 |
| C=CC(=O)Nc1cccc(-c2cn(C)nn2)c1 [1-K14, N-[3-(1-methyl-1H-1,2,3-triazol-4-yl)phenyl]prop-2-enamide] | 102.33 |
| CC(=O)NCc1ccc(C2CCCN2C(=O)CCl)o1 (stereo not shown) [5-P13, N-({5-[1-(2-chloroacetyl)pyrrolidin-2-yl]furan-2-yl}methyl)acetamide] | 100.182 |
| C=CC(=O)N1CCN(S(C)(=O)=O)[C@H](C)C1 [1-G15, 1-[(3R)-4-methanesulfonyl-3-methylpiperazin-1-yl]prop-2-en-1-one] | 111.824 |
| CCOC(=O)c1c(NC(=O)CCl)sc(C)c1C [4-O15, ethyl 2-(2-chloroacetamido)-4,5-dimethylthiophene-3-carboxylate] | 72.7966 |
| CC(Cl)C(=O)Nc1ccc(F)c(Cl)c1 (stereo not shown) [4-A04, 2-chloro-N-(3-chloro-4-fluorophenyl)propanamide] | 117.389 |
| CC(Cl)C(=O)Nc1ccc(S(=O)(=O)N2CCCCC2)cc1 (stereo not shown) [4-A12, 2-chloro-N-[4-(piperidine-1-sulfonyl)phenyl]propanamide] | 150.929 |
| CC(C)NC(=O)C(C#N)=Cc1cccc(Cl)c1 [9-A13, 3-(3-chlorophenyl)-2-cyano-N-(propan-2-yl)prop-2-enamide] | 115.955 |
| COc1ccc(C=C(C#N)C(=O)Nc2cccc(C)c2)cc1 [8-M03, 2-cyano-3-(4-methoxyphenyl)-N-(3-methylphenyl)prop-2-enamide] | 138.091 |
| CC(Cl)C(=O)N1CCN(C(c2ccccc2)C(F)(F)F)CC1 (stereo not shown) [6-P16, 2-chloro-1-[4-(2,2,2-trifluoro-1-phenylethyl)piperazin-1-yl]propan-1-one] | 82.2927 |
| Cl.Cn1ccc(-c2nc(CNC(=O)CCl)cs2)n1 [6-B09, 2-chloro-N-{[2-(1-methyl-1H-pyrazol-3-yl)-1,3-thiazol-4-yl]methyl}acetamide hydrochloride] | 91.5122 |
| C=CC(=O)Nc1ccc(C(=O)N2C[C@H](O)C[C@H]2C(=O)OC)cc1 [2-O21, methyl (2S,4R)-4-hydroxy-1-[4-(prop-2-enamido)benzoyl]pyrrolidine-2-carboxylate] | 107.572 |
| O=C(CCl)C1CCCC2(CC2)C1 (stereo not shown) [10-E11, 2-chloro-1-{spiro[2.5]octan-5-yl}ethan-1-one] | 103.438 |
| Cn1nc(C(F)(F)F)cc1CN(C(=O)CCl)C1CCCC1 [5-C16, 2-chloro-N-cyclopentyl-N-{[1-methyl-3-(trifluoromethyl)-1H-pyrazol-5-yl]methyl}acetamide] | 105.282 |
| Cc1ccc(N(CCC#N)C(=O)CCl)cc1C [4-A03, 2-chloro-N-(2-cyanoethyl)-N-(3,4-dimethylphenyl)acetamide] | 93.7589 |
| C=CC(=O)NCc1ccccc1S(=O)(=O)N1CCOCC1 [3-H22, N-{[2-(morpholine-4-sulfonyl)phenyl]methyl}prop-2-enamide] | 75.2286 |
| O=C(CCl)NCCCC(=O)N1CCCC1 [7-N08, 2-chloro-N-[4-oxo-4-(pyrrolidin-1-yl)butyl]acetamide] | 108.32 |
| O=C1C=CC(=O)N1c1ccc(F)c(Cl)c1 [10-D15, 1-(3-chloro-4-fluorophenyl)-2,5-dihydro-1H-pyrrole-2,5-dione] | 109.688 |
| Cc1c(C=C(C#N)C(=O)Nc2ccccn2)cc(C#N)n1C [8-G06, 2-cyano-3-(5-cyano-1,2-dimethyl-1H-pyrrol-3-yl)-N-(pyridin-2-yl)prop-2-enamide] | 98.5892 |
| Cc1cc(C)cc(N(CCC#N)C(=O)CCl)c1 [5-P18, 2-chloro-N-(2-cyanoethyl)-N-(3,5-dimethylphenyl)acetamide] | 95.4463 |
| COc1cc([N+](=O)[O-])ccc1N1C(=O)C=CC1=O [10-H13, 1-(2-methoxy-4-nitrophenyl)-2,5-dihydro-1H-pyrrole-2,5-dione] | 101.563 |
